According to patent US20260193317A1, “COMBINATION THERAPY WITH ACTRIIB RECEPTOR VARIANTS AND GLP-1 AGONISTS” (35PHARMA Inc., priority 2023, published 2026):

How the values were obtained:
[1] = system: diet-induced obese (DIO) mice; assay: Body composition and metabolism in diet-induced obese (DIO) mice; assay type: in vivo
Experimental: (§1) Experiments were performed to assess the effects of P1229 on body composition and metabolism in diet-induced obese (DIO) mice. DIO mice were purchased from Jackson Laboratories (#380050). Briefly, mice were fed a high-fat diet (HFD, 60% kcal from fat) from 6 weeks of age until 22 weeks of age (total of 16 weeks on the HFD). […] After 3 weeks of treatments, some animals were sacrificed and scanned by EchoMRI […] (FIGS. 11A-F), while others were sacrificed for tissue collection and RNA analysis. Animals were maintained on the HFD throughout the acclimatization and treatment periods. The murine version of bimagrumab used for these experiments comprises the heavy chain amino acid sequence of SEQ ID NO: 376 and the light chain sequence of SEQ ID NO: 377.

[2] = Single-injection body weight gain in wild-type mice; assay type: in vivo; details: single 25 mg/kg subcutaneous injection, after 4 days, vs vehicle
Experimental: To investigate the target engagement of exemplary ActRIIB-ECD polypeptide constructs in vivo, mice (n=6/group) were injected with given agents (25 mg/kg, subcutaneous injection), and sacrificed after 4 days to assess body weight gain.

[3] = system: follicle-stimulating hormone (FSH); assay: FSH production in DIO mice; assay type: in vivo; details: 3 weeks of treatment
Experimental: as §1
Follicle-stimulating hormone (FSH) is a known biomarker of in vivo target engagement for activin receptor-based traps (See Attie et al. (2013). Muscle Nerve, 47: 416-423). To further validate in vivo target engagement for exemplary agents, FSH production was evaluated in DIO mice, as described above.

activin A = target: T1, activin A (Homo sapiens, UniProt P08476); assay: Small-scale activin A ELISA with CHO supernatants; details: 1 μg/mL protein, 30 ng/mL activin A, loss of signal = binding
T1 sequence (P08476 311-426): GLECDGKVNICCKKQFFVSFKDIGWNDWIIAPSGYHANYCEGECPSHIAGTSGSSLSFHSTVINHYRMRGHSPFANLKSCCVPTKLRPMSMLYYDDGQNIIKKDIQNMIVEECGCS
Procedure, shortened: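 ActRIIB-ECD-Fc fusions were expressed transiently in CHO cells and harvested after 7 days. Supernatant protein at 1 μg/mL final was premixed with human activin A at 30 ng/mL final and incubated 1 h at RT on an anti-activin A antibody plate. Loss of signal was expressed as % of wild-type ActRIIB-Fc.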

[4] = SEC-HPLC monomer and HMW content of purified fusion proteins; assay type: physicochemical; details: after Protein A purification

B1: P1373: hActRIIB L33W, 19 aa linker, IgG1-DL Fc; SEQ ID 232 (protein)
chain: ETRECIYYNANWELERTNQSGLERCEGEQDKRWHCYASWRNSSGTIELVKKGCWLDDFNCYDRQECVATEENPQVYFCCCEGNFCNERFTHLPEAGGPEVTYEPPPTGGGGSGGGGSGGGGSGG[human IgG1 Fc and a few adjoining residues not spelt out]
Question: With B1 as the molecule, how does the “hepatic Ahsg expression” value [1] read?
Answer: reduced Ahsg expression

Question: And the “hepatic Fgf21 expression” value [1]?
Answer: reduced

Question: And the “hepatic Inhbe expression” value [1]?
Answer: significantly decreased Inhbe expression

Question: And the “Mss51 gene expression in gastrocnemius muscle” value ([1]; 3 weeks)?
Answer: reduced Mss51 gene expression

Question: What about the “Serpine1:Id1 expression ratio in soleus muscle” value ([1]; 3 weeks) of the same molecule?
Answer: lower Serpine1:Id1 expression ratio

Question: What about the “ratio of lean mass to fat mass” value ([1]; 3 weeks) of the same molecule?
Answer: higher

Question: And the “fat mass and lean mass (EchoMRI)” value ([1]; 3 weeks s.c., P75, P1229 25 mg/kg twice weekly, P1373 5, 20, 50 mg/kg twice weekly, P1307 20 mg/kg weekly)?
Answer: fat loss with concomitant lean mass gain

Question: And the body weight gain [2]?
Answer: statistically significant body weight gain

Question: And the FSH production [3]?
Answer: significant decreases in FSH production

Question: And the “activin A binding, ELISA signal relative to P75” value (activin A)?
Answer: potent activin A binding

Question: And the “high molecular weight (HMW) content (SEC-HPLC)” value [4]?
Answer: 2%

Question: And the “monomer content (SEC-HPLC)” value [4]?
Answer: 98%
